From PubChem BioAssay AID504333 (National Center for Advancing Translational Sciences (NCATS), 2011)
Screen size: about 360,000 compounds; about 16,000 (4.4%) were called active. Inconclusive means that the source gave no clear call. Such entries were picked first, then a sample of the others. Calls follow the shape of the dose curve; as a rule, active = well fitted inhibition curve with a large enough effect; inconclusive = small, poorly fitted or top-dose-only effect; inactive = no such curve, though single readings can be large or run the other way. A potency beside an inconclusive call is a rough fit, not a confirmed value.

molecular target: Bromodomain adjacent to zinc finger domain protein 2B (Homo sapiens) (UniProt Q9UIF8); test: qHTS Assay for Inhibitors of BAZ2B; details: AlphaScreen BAZ2B-H3K14Ac peptide displacement; activity change, negative = inhibition: at 114 µM (top of the series); also: nearly all actives have a fitted effect of over 60% in size
How it was run: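 AlphaScreen luminescence quantifies BAZ2B engagement of H3K14Ac peptide; the protein and biotinylated peptide are both at 50 nM final, buffer PBS pH 7.4 with 0.01% Tween-20, all steps at room temperature.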
% is scaled to controls: 0 for no effect and ±100 for the full control effect; potency is read from the fitted curve at half-maximal effect; tags tell the direction and shape of the fitted curve.

Chain of UniProt Q9UIF8 (Q9UIF8 whole entry, looked up, the tested form may be a part): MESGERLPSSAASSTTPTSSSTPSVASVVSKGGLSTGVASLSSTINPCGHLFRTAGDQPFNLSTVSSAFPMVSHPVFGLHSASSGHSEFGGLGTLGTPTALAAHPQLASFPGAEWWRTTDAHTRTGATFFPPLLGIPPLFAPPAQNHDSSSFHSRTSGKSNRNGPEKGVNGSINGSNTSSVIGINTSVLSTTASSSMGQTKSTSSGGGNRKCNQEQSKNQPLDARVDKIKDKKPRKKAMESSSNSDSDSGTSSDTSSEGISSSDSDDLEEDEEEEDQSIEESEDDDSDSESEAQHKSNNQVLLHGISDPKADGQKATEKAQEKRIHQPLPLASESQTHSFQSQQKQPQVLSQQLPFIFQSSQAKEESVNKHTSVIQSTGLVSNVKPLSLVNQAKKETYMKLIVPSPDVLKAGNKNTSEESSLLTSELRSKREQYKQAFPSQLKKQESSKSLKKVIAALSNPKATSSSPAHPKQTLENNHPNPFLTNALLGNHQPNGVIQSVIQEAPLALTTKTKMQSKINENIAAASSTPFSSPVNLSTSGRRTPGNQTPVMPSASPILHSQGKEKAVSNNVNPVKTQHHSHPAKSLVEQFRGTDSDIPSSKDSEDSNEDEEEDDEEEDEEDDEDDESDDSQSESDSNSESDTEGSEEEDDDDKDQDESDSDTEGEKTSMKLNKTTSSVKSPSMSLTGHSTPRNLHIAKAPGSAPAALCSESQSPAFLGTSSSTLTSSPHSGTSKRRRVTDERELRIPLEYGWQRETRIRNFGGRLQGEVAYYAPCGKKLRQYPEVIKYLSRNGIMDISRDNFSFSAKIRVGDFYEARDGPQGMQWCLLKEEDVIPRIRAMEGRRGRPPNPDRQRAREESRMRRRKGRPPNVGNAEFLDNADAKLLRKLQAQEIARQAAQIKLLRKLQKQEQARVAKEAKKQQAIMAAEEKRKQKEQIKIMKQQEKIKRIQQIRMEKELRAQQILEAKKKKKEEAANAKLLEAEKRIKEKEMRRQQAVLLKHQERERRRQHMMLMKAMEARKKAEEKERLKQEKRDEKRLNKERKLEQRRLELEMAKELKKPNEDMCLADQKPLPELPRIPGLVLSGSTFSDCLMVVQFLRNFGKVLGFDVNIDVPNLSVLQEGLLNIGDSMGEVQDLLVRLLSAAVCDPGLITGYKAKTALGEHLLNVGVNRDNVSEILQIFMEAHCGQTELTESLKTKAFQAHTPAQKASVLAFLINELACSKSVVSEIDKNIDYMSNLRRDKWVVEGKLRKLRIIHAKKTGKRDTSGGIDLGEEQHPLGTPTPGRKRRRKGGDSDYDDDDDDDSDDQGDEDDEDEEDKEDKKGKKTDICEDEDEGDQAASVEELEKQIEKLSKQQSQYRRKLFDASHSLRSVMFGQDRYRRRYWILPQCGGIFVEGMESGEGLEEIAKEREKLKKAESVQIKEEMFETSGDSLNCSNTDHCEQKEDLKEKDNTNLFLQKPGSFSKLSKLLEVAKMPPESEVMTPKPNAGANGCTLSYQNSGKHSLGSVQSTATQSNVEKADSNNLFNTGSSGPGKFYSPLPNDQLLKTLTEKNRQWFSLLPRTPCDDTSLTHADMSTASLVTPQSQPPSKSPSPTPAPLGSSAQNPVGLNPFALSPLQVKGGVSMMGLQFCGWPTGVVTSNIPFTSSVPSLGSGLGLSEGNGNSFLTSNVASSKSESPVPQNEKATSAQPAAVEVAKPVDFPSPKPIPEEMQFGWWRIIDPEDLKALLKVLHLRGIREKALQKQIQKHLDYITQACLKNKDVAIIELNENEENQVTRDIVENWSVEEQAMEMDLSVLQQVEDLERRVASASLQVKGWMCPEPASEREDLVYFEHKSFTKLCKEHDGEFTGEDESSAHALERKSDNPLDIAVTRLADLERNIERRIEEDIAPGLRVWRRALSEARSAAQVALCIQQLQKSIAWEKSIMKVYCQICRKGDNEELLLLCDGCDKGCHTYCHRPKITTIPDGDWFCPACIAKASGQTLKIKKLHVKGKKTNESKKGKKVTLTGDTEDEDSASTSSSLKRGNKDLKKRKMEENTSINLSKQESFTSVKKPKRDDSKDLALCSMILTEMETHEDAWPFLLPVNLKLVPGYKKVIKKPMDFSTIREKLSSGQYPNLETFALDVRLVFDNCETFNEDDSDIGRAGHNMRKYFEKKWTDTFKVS

Question: With O=C(O)c1ccc(N/N=C/c2ccc(OC(=O)c3ccccc3Cl)cc2)cc1 as the compound, how does the Potency read?
Answer: Its Potency is active: 89.1 µM.

Question: With O=C(/C=C/c1ccco1)Nc1ccccc1N1CCCCC1 as the compound, how does the Potency read?
Answer: The Potency was inconclusive: 44.7 µM [inhibitor, partial curve].

Question: Which Potency does the source give for Nc1cccc2[nH]c(C(F)(F)F)nc12 here?
Answer: The Potency was active: 56.2 µM.

Question: COc1ccc(-n2nc3c(N4CCC(C(=O)NCc5cccc(F)c5)CC4)nnc(C)c3c2C)cc1 was tested. Which Potency did it give?
Answer: Its Potency is inconclusive: 89.1 µM [inhibitor, single point].

Question: With O=C(CN1CCCCC1)N/N=C/c1ccccc1Br as the compound, how does the Potency read?
Answer: The Potency was inconclusive: 100 µM [inhibitor, single point].

Question: For N#Cc1nc(COc2ccc(Cl)cc2Cl)oc1N1CCN(c2ccccc2)CC1, which Potency is on record?
Answer: The Potency was inconclusive: 8.91 µM [inhibitor, full curve, poor fit].

Question: Which “activity change, negative = inhibition” value does the source give for CCCC(=O)Nc1ccccc1NC(=O)c1cc(OC)c(OC)c(OC)c1 here?
Answer: The value was inactive: 4.38%.

Question: How did the “activity change, negative = inhibition” value turn out when CCC(NC(C)C)C(O)c1ccc(O)c2[nH]c(=O)ccc12 (configuration not stated) was run?
Answer: The value was inactive: -4.93%.

Question: Which “activity change, negative = inhibition” value does the source give for COc1cccc(Cc2nc3ccccc3nc2SCC(=O)NCCc2ccccc2)c1 here?
Answer: Its value is inactive: 12.8%.

Question: How did the Potency turn out when Cc1ccc(C(CCN(Cc2ccccc2)C(=O)c2ccco2)c2ccco2)cc1 (configuration not stated) was run?
Answer: Its Potency is active: 31.6 µM.

Question: How did the “activity change, negative = inhibition” value turn out when Cc1ccc(-c2sc(C(=O)Nc3ccc(Br)cc3)cc2CC(=O)O)cc1 was run?
Answer: The value was inactive: -14%.

Question: With COc1cc2c(cc1OC)CN(C(=O)c1cc(=O)c3ccccc3o1)CC2 as the compound, how does the Potency read?
Answer: Its Potency is inconclusive: 7.08 µM [inhibitor, single point].

Question: How did the Potency turn out when O=C(NCC(c1ccco1)N1CCc2ccccc21)c1ccccc1Cl (configuration not stated) was run?
Answer: The Potency was inconclusive: 50.1 µM [inhibitor, partial curve].

Question: With CN1C(=O)CC(Sc2ccccc2C(=O)O)C1=O (configuration not stated) as the compound, how does the “activity change, negative = inhibition” value read?
Answer: The value was inactive: -26.1%.

Question: Which Potency does the source give for COc1cccc(C(=O)C2CCCN(CC3=Cc4cc(OC)ccc4OC3)C2)c1 (configuration not stated) here?
Answer: Its Potency is inconclusive: 50.1 µM [inhibitor, partial curve].

Question: Which Potency does the source give for COCC1CCCCN1C(=O)C1CCN(c2nc(-c3ccccc3)nc3c2CCC3)CC1 (configuration not stated) here?
Answer: Its Potency is inconclusive: 89.1 µM [inhibitor, single point].

Question: O=C(NCc1ccc(Cl)cc1)N1CCOCC1 was tested. Which “activity change, negative = inhibition” value did it give?
Answer: Its value is inactive: 0.959%.

Question: How did the Potency turn out when COc1ccc(SC[C@H](CC(C)C)N2CCN(CCc3ccccc3)CCC2=O)cc1 was run?
Answer: Its Potency is inconclusive: 70.8 µM [inhibitor, single point].

Question: How did the Potency turn out when CCOc1ccc(N2CC(C(=O)Nc3ccncc3)CC2=O)cc1 (configuration not stated) was run?
Answer: The Potency was inconclusive: 3.55 µM [inhibitor, single point].

Question: With CC(=O)c1cccc(NC(=O)Cn2c(=O)c(CNc3ccc(C)cc3)cc3cc4c(cc32)OCCO4)c1 as the compound, how does the Potency read?
Answer: Its Potency is inconclusive: 89.1 µM [inhibitor, single point].

Question: For COc1ccccc1NS(=O)(=O)c1cccc(C(=O)NCC(c2ccccc2OC)N2CCCC2)c1 (configuration not stated), which Potency is on record?
Answer: Its Potency is inconclusive: 50.1 µM [inhibitor, partial curve].

Question: Which Potency does the source give for O=C(NC(=S)Nc1ccccc1N1CCCCC1)c1ccc(F)cc1 here?
Answer: Its Potency is inconclusive: 44.7 µM [inhibitor, full curve].

Question: Which “activity change, negative = inhibition” value does the source give for Cc1nnsc1S(=O)c1ccc(Cl)cc1 (configuration not stated) here?
Answer: Its value is inactive: -3.94%.

Question: COCC1CCN(C(=O)c2ccc(OC3CCN(Cc4ccccn4)CC3)cc2)C1 (configuration not stated) was tested. Which “activity change, negative = inhibition” value did it give?
Answer: The value was inactive: -11.4%.

Question: How did the Potency turn out when Cc1ccc(-c2cccc(NC(=O)C3C(C(=O)O)[C@@H]4C=C[C@H]3C4)c2)o1 (some centres not stated) was run?
Answer: The Potency was inconclusive: 44.7 µM [inhibitor, partial curve].

Question: Which Potency does the source give for c1cc(CNc2ccc3c(c2)OCO3)ccn1 here?
Answer: The Potency was inconclusive: 89.1 µM [inhibitor, single point].

Question: How did the Potency turn out when O=C(c1ccccc1)c1coc2c1C(=O)c1ccccc1C2=O was run?
Answer: The Potency was active: 31.6 µM.

Question: Which Potency does the source give for COc1cccc(CCN2CCC(CNS(=O)(=O)c3cc(-c4cc(C)no4)ccc3C)CC2)c1 here?
Answer: Its Potency is inconclusive: 70.8 µM [inhibitor, single point].

Question: CCc1cc2c(=O)[nH]c(Cc3ccccc3)nc2s1 was tested. Which “activity change, negative = inhibition” value did it give?
Answer: The value was inactive: 7.53%.

Question: Which “activity change, negative = inhibition” value does the source give for Cc1ccc(-c2nn3c(-c4cccc(Cl)c4)nnc3s2)cc1 here?
Answer: Its value is inactive: 2.04%.

Question: N#Cc1ccccc1OCC(=O)NC(=O)NCc1ccco1 was tested. Which Potency did it give?
Answer: Its Potency is inconclusive: 89.1 µM [inhibitor, partial curve].

Question: COc1cc(/C=C/C(=O)OCC(=O)NCc2ccccc2OC)ccc1O was tested. Which “activity change, negative = inhibition” value did it give?
Answer: The value was inactive: -0.248%.

Question: Which Potency does the source give for COc1cc2cc(-c3ccc(O)cc3O)nc(C)c2cc1OC here?
Answer: The Potency was inconclusive: 50.1 µM [inhibitor, partial curve].

Question: For CN(CC(=O)Nc1c(Cl)cccc1Cl)C(=O)c1ccc2nc[nH]c2c1, which Potency is on record?
Answer: The Potency was inconclusive: 56.2 µM [inhibitor, partial curve].

Question: For Cc1ccc(N=C2C(=O)Nc3ccc(C)c(Br)c32)cc1, which Potency is on record?
Answer: Its Potency is inconclusive: 79.4 µM [inhibitor, single point].

Question: With CCN(CC)c1ccc2c(-c3ccc(S(=O)(=O)O)cc3S(=O)(=O)[O-])c3ccc(=[N+](CC)CC)cc-3oc2c1 as the compound, how does the Potency read?
Answer: Its Potency is active: 7.94 µM.

Question: Which Potency does the source give for COc1ccc(C)cc1Nc1n[n+](-c2ccccc2)c(-c2cccc(Cl)c2Cl)s1 here?
Answer: The Potency was inconclusive: 79.4 µM [inhibitor, single point].

Question: How did the “activity change, negative = inhibition” value turn out when Cc1ccc(C2C3=C(CC(C)(C)CC3=O)OC3=C2C(=O)CC(C)(C)C3)cc1 was run?
Answer: Its value is inactive: -20.2%.

Question: For COc1ccc2[nH]cc(CCNC(=O)C3CCCCC3)c2c1, which Potency is on record?
Answer: The Potency was inconclusive: 89.1 µM [inhibitor, single point].

Question: With CCn1c(C)c(C2N3CC4(C)CN2CC(CC)(C3)C4=O)c2ccccc21 (configuration not stated) as the compound, how does the “activity change, negative = inhibition” value read?
Answer: Its value is inactive: -15.9%.

Question: For O=C(NCc1ccc(Cl)cc1)c1csc(-c2cccnc2)n1, which “activity change, negative = inhibition” value is on record?
Answer: The value was inactive: -18.5%.

Question: How did the activity change, negative = inhibition turn out when Cc1ccc2c(c1)c1c3n2CCN(CC(O)CNC(C)C)C3CCC1 (configuration not stated) was run?
Answer: The activity change, negative = inhibition was inconclusive: -40.1% [inhibitor].

Question: Which “activity change, negative = inhibition” value does the source give for Nc1nc(SCC(=O)N2CCOCC2)[nH]c(=O)c1-c1ccccc1 here?
Answer: The value was inactive: -8.83%.

Question: How did the Potency turn out when COc1ccc(OC)c(NC(=O)CCc2nnc3ccc(N4CCC(C)CC4)nn23)c1 was run?
Answer: The Potency was inconclusive: 20 µM [inhibitor, full curve].

Question: COc1cc(NC(=O)CSc2nccc(C)n2)c(C(=O)O)cc1OC was tested. Which Potency did it give?
Answer: Its Potency is inconclusive: 63.1 µM [inhibitor, partial curve, poor fit].

Question: How did the Potency turn out when O=C(CN1C(=O)CSc2ccccc21)Nc1ccc2c(c1)OCCO2 was run?
Answer: The Potency was inconclusive: 89.1 µM [inhibitor, single point].

Question: With C=CCOc1ccc2ccccc2c1/C=N/O as the compound, how does the Potency read?
Answer: The Potency was inconclusive: 3.98 µM [inhibitor, full curve, poor fit].
